The text below walks through data of patent US10017827B2, “Herbicide-resistant sunflower plants with multiple herbicide resistant alleles of AHASL1 and methods of use” (BASF AGROCHEMICAL PRODUCTS B.V., priority 2007, dated 2018).

The subject of this data set is sunflower hybrid H2 (L3 × L4, A122T). Nature of the data set: Greenhouse whole-plant response to imazapyr. The data set is classed as in vivo. Particulars: 14 DAT.

In the case of `CC(C)C1(C)N=C(c2ncccc2C(=O)O)NC1=O` (stereo not drawn) [imazapyr], the “Phytotoxicity Index (0-9)” value reads like this: (0.5x (40 g ai/ha)) 0.5; (1x (80 g ai/ha)) 0.5; (2x (160 g ai/ha)) 0.5; (3x (240 g ai/ha)) 0.5; (4x (320 g ai/ha)) 0.5; (5x (400 g ai/ha)) 0.5. In addition, where the note is “6x (480 g ai/ha)”, the “Phytotoxicity Index (0-9)” value turned out to be 0.5. In addition, the “biomass accumulation, % of untreated” value (0.5x (40 g ai/ha)) is listed as 100%. For the same molecule, the “plant height, % of untreated” value (5x (400 g ai/ha)) is 87.0%.
